The subject of assay [1] is pseudotyped virus (NL4-3 provirus, luciferase reporter), WT. The assay can be described thus: microbe, parasite or virus in culture. The note with it: Human immunodeficiency virus 1, NL43, 72 h, read-out: WT IC50. An excerpt: (§1) A pseudotyped virus assay (PSV) was used to assess the potency of the HIV inhibitor. Replication defective virus was produced by co-transfection of a plasmid containing an NL4-3 provirus [containing a mutation in the envelope open reading frame (ORF) and a luciferase reporter gene replacing the nef ORF] and a CMV-promoter expression plasmid containing an ORF for various HIV gp160 envelope clones. The harvested virus was stored at −80C in small aliquots and the titer of the virus measured to produce a robust signal for antiviral assays.
(§2) The PSV assay was performed by using U373 cells stably transformed to express human CD4, the primary receptor for HIV entry and either human CXCR4 or human CCR5 which are the co-receptors required for HIV entry as target cells for infection. Molecules of interest (including, but not limited to small molecule inhibitors of HIV, neutralizing antibodies of HIV, antibody-drug conjugate inhibitors of HIV, peptide inhibitors of HIV, and various controls) are capable of being diluted into tissue culture media and diluted via serial dilution to create a dose range of concentrations, and this was carried out for Example 1. This dose-range was applied to U373 cells and the pre-made pseudotyped virus added. The amount of luciferase signal produced after 3 days of culture was used to reflect the level of pseudotyped virus infection. An IC50, or the concentration of inhibitor required to reduce PSV infection by 50% from the infection containing no inhibitor was calculated. Assays to measure cytotoxity were performed in parallel to ensure the antiviral activity observed for an inhibitor was distinguishable from reduced target cell viability. IC50 values were determined from a 10 point dose response curve using 3-4-fold serial dilution for each compound, which spans a concentration range >1000 fold.
(§3) These values are plotted against the molar compound concentrations using the standard four parameter logistic equation:
(§4) y=((Vmax *x^n)/(K^n+x^n))+Y2
(§5) Y2=minimum y n=slope factor
(§6) Vmax=maximum y x=compound concentration [M]

The test system of assay [2] is pseudotyped virus (NL4-3 provirus, luciferase reporter), M184V. The note with it: U373 cells expressing human CD4 and CXCR4 or CCR5; luciferase signal after 3 days of culture.
Source text: as §1, §2, §3, §4, §5, §6

For assay [3], the system named is pseudotyped virus (PSV), WT. The assay can be described thus: microbe, parasite or virus in culture. The note with it: for IC50: Human immunodeficiency virus 1, U373 MG; for Fold Change vs EFdA: fold change of the persistence index relative to EFdA; for Persistence Index: ratio of the IC50 determined at 48 and 0 h. As for the experimental part: The PSV assay was adapted to determine the antiviral persistence of each compound. This assay evaluates the ability of each compound to remain active in cells for two days i.e. prevent PSV infection of cells in a dose dependent manner, 48 h after the removal of compound. Duplicate plates of U373 cells were treated with a serial dilution of small molecule inhibitors for 6 h at 37° C. Compounds were removed from cells by washing twice cells with 1×PBS. For baseline group (i.e. immediately after washing or 0 h), cells were infected with prepared PSVs and cultured for three days. For experimental group (48 h), the culture medium is added to the washed cells and the plate incubated at 37° C. for 48 h. After two days of culture, the prepared PSVs were added to the cells and the mixture cultured for three days. The amount of luciferase signal produced after culture was used to reflect the level of pseudo typed virus infection in the baseline group (0 h) and experimental group (48 h) for each compound. An IC50, or the concentration of inhibitor required to reduce PSV infection by 50% from the infection containing no inhibitor was calculated. The persistence index, which is the ratio of the IC50 determined at 48 and 0 h is presented in Table 2 as well as the fold change of the persistence index relative to EFdA [(2R,3S,5R)-5-(6-amino-2-fluoro-9H-purin-9-yl)-2-ethynyl-2-(hydroxymethyl)tetrahydrofuran-3-ol].
Statistical analysis and graphing of the data were performed in JMP 13.2.1 (SAS Institute, Cary, N.C.). A four-parameter logistic Hill Model was fit to % Inhibition and log10 concentration values, separately for each compound, time point and run. A pilot experiment included 2 independent experimental runs and a later follow-up experiment included 4 runs. Quality control criteria based on R^2 and 95% confidence interval ranges of all four parameter estimates were used to exclude curves with poor fits. Using inverse prediction, log10 concentrations were obtained that correspond to 50% Inhibition (log10IC50*) and the log10 persistence index was calculated for each compound and run using the following formula: log10 persistence Index=log10IC50*48 hrs−log10IC50*0 hrs. Next, a linear mixed effects model was fit on log10 persistence index values with a fixed effect for compound and a random effect for experimental run, followed by post hoc contrasts to compare the log10 persistence index of the positive control EFdA to the log10 persistence index of other test compounds. The estimated LSMeans and differences were then back-transformed via 10^Estimate to the original scale and reported as persistence index and fold change respectively. Raw p-values were reported.

Where two headings read alike, the source gives them in different places.

As a reminder, the IC50 is the midpoint of a concentration-inhibition curve. Consider `C#C[C@]1(COC(=O)OCCCCCCCCCCCCCCCCCC)O[C@@H](n2cnc3c(N)nc(F)nc32)C[C@@H]1O` [Example 13, ((2R,3S,5R)-5-(6-amino-2-fluoro-9H-purin-9-yl)-2-ethynyl-3-hydroxytetrahydrofuran-2-yl)methyl octadecyl carbonate], for which the concentration for half-maximal inhibition (IC50) is 0.0104 µM in assay [1] and 0.0411 µM in assay [2].
For `C#C[C@]1(CO)O[C@@H](n2cnc3c(NC(=O)CCCCCCCCCCCCC)nc(F)nc32)C[C@@H]1O` [Example 15, N-(9-((2R,4S,5R)-5-ethynyl-4-hydroxy-5-(hydroxymethyl)tetrahydrofuran-2-yl)-2-fluoro-9H-purin-6-yl)tetradecanamide] the same measures were 0.0014 µM and 0.0074 µM.
Taken in the same sequence, the figures for `C#C[C@]1(COCOC(=O)OCCCCCCCCCCCCCCCC)O[C@@H](n2cnc3c(N)nc(F)nc32)C[C@@H]1O` [Example 11, (((2R,3S,5R)-5-(6-amino-2-fluoro-9H-purin-9-yl)-2-ethynyl-3-hydroxytetrahydrofuran-2-yl)methoxy)methyl hexadecyl carbonate] were 0.0065 µM and 0.019 µM.
With `C#C[C@]1(COCOC(=O)OC(C)C)O[C@@H](n2cnc3c(N)nc(F)nc32)C[C@@H]1O` [Example 2, (((2R,3S,5R)-5-(6-amino-2-fluoro-9H-purin-9-yl)-2-ethynyl-3-hydroxytetrahydrofuran-2-yl)methoxy)methyl isopropyl carbonate], the IC50 in assay [1] worked out at 0.0095 µM; in assay [3] (read-out: WT IC50 at t = 0 h) it was 0.0195 µM; in assay [3] (read-out: WT IC50 at t = 48 h), 0.532 µM; in assay [2] it was 0.06 µM. In addition, the “Fold Change vs EFdA” value in assay [3] is given as 1.44. Also, in assay [3], the “Persistence Index” value is 29.9.
As for `C#C[C@]1(COCOC(=O)OCCCCCCCCCC)O[C@@H](n2cnc3c(N)nc(F)nc32)C[C@@H]1O` [Example 6, (((2R,3S,5R)-5-(6-amino-2-fluoro-9H-purin-9-yl)-2-ethynyl-3-hydroxytetrahydrofuran-2-yl)methoxy)methyl decyl carbonate], the IC50 in assay [1] came out at 0.0034 µM; in assay [3] (read-out: WT IC50 at t = 0 h), 0.0021 µM; in assay [3] (read-out: WT IC50 at t = 48 h) it was 0.0986 µM; in assay [2], 0.0111 µM. Moreover, the “Fold Change vs EFdA” value in assay [3] was 0.90. The “Persistence Index” value in assay [3] came out at 47.7.
For the compound `C#C[C@]1(CO)O[C@@H](n2cnc3c(N)nc(F)nc32)C[C@@H]1OC(=O)OCCCCCCCCCCCCCCCCCCCC` [Example 10, (2R,3S,5R)-5-(6-amino-2-fluoro-9H-purin-9-yl)-2-ethynyl-2-(hydroxymethyl)tetrahydrofuran-3-yl icosyl carbonate], the results for the IC50 in assay [1] and in assay [2] were 5.4 µM and over 25 µM, respectively.
Taken in the same sequence, the figures for `C#C[C@]1(COCOC(=O)C(C)C)O[C@@H](n2cnc3c(N)nc(F)nc32)C[C@@H]1O` [Example 1, (((2R,3S,5R)-5-(6-amino-2-fluoro-9H-purin-9-yl)-2-ethynyl-3-hydroxytetrahydrofuran-2-yl)methoxy)methyl isobutyrate] were 0.0085 µM and 0.0498 µM.
Turning to `C#C[C@]1(CO)O[C@@H](n2cnc3c(NC(=O)OCC)nc(F)nc32)C[C@@H]1OC(=O)OCC` [Example 7, ethyl (9-((2R,4S,5R)-4-((ethoxycarbonyl)oxy)-5-ethynyl-5-(hydroxymethyl)tetrahydrofuran-2-yl)-2-fluoro-9H-purin-6-yl)carbamate], the IC50 in assay [1] is 13.3 µM; in assay [2], 15 µM.
`C#C[C@]1(CO)O[C@@H](n2cnc3c(N)nc(F)nc32)C[C@@H]1O` [EFdA, (2R,3S,5R)-5-(6-amino-2-fluoro-9H-purin-9-yl)-2-ethynyl-2-(hydroxymethyl)tetrahydrofuran-3-ol, reference compound]: the IC50 in assay [1] stood at 0.0065 µM; in assay [3] (read-out: WT IC50 at t = 0 h), 0.0074 µM; in assay [2], 0.0351 µM. In assay [3], the “Fold Change vs EFdA” value is 1.00. In addition, the “Persistence Index” value in assay [3] was found to be 42.9.
As to `C#C[C@]1(CO)O[C@@H](n2cnc3c(NC(=O)CCCCCCCCC)nc(F)nc32)C[C@@H]1O` [Example 14, N-(9-((2R,4S,5R)-5-ethynyl-4-hydroxy-5-(hydroxymethyl)tetrahydrofuran-2-yl)-2-fluoro-9H-purin-6-yl)decanamide], the half-maximal inhibitory concentration (IC50) in assay [1] came out at 0.0018 µM; in assay [2], 0.0061 µM.
Taken in the same sequence, the figures for `C#C[C@]1(COC(=O)OCC)O[C@@H](n2cnc3c(N)nc(F)nc32)C[C@@H]1O` [Example 5, ((2R,3S,5R)-5-(6-amino-2-fluoro-9H-purin-9-yl)-2-ethynyl-3-hydroxytetrahydrofuran-2-yl)methyl ethyl carbonate] were 0.0195 µM and 0.112 µM.
Turning to `C#C[C@]1(CO)O[C@@H](n2cnc3c(N)nc(F)nc32)C[C@@H]1OC(=O)OCC` [Example 8, (2R,3S,5R)-5-(6-amino-2-fluoro-9H-purin-9-yl)-2-ethynyl-2-(hydroxymethyl)tetrahydrofuran-3-yl ethyl carbonate], the IC50 in assay [1] was found to be 0.0289 µM; in assay [2], 0.185 µM.
For `C#C[C@]1(CO)O[C@@H](n2cnc3c(N)nc(F)nc32)C[C@@H]1OC(=O)OCCCCCCCCCCCCCCCCCCC` [Example 9, (2R,3S,5R)-5-(6-amino-2-fluoro-9H-purin-9-yl)-2-ethynyl-2-(hydroxymethyl)tetrahydrofuran-3-yl nonadecyl carbonate] the same measures were 2 µM and 19.4 µM.
For `C#C[C@]1(CO)O[C@@H](n2cnc3c(NC(=O)OCC)nc(F)nc32)C[C@@H]1O` [Example 3, ethyl (9-((2R,4S,5R)-5-ethynyl-4-hydroxy-5-(hydroxymethyl)tetrahydrofuran-2-yl)-2-fluoro-9H-purin-6-yl)carbamate] the same measures were 1.54 µM and 6.29 µM.
As to `C#C[C@]1(COC(=O)OCCCCCCCCCCCC)O[C@@H](n2cnc3c(N)nc(F)nc32)C[C@@H]1O` [Example 4, ((2R,3S,5R)-5-(6-amino-2-fluoro-9H-purin-9-yl)-2-ethynyl-3-hydroxytetrahydrofuran-2-yl)methyl dodecyl carbonate], the IC50 in assay [1] is 0.0025 µM; in assay [3] (read-out: WT IC50 at t = 0 h) it was 0.0011 µM; in assay [3] (read-out: WT IC50 at t = 48 h), 0.0219 µM; in assay [2] it was 0.0109 µM. The “Fold Change vs EFdA” value in assay [3] stood at 2.25. Also, in assay [3], the “Persistence Index” value came out at 19.1.

For the origin of these results see patent US20210323993A1, “Compounds Useful in HIV Therapy” (priority 2018, published 2021).
